Reference: PubChem BioAssay AID1460 (National Center for Advancing Translational Sciences (NCATS), 2008)
Where “and” joins values, the source holds several entries; their conditions need not be identical. Equal entries are not always repeated. Screen size: about 270,000 compounds; about 5,800 (2.1%) were called active. Inconclusive means that the source gave no clear call. Such entries were picked first, then a sample of the others. Calls follow the shape of the dose curve; as a rule, active = well fitted inhibition curve with a large enough effect; inconclusive = small, poorly fitted or top-dose-only effect; inactive = flat fitted curve, though single readings scatter. Potencies of inconclusive entries are doubtful fits and often do not repeat.
Also: nearly all actives have a fitted effect of over 55% in size.
Potency is read from the fitted curve at half-maximal effect; tags tell the direction and shape of the fitted curve.

The compounds below were run against Microtubule-associated protein tau (Homo sapiens) (UniProt P10636) (assay: qHTS for Inhibitors of Tau Fibril Formation, Thioflavin T Binding). Conditions: recombinant tau K18 P301L (four-repeat tau fragment), heparin-induced fibrillization, ThT fluorescence; series mostly up to 57.4 µM.
UniProt P10636, sequence (P10636 whole entry, looked up, the tested form may be a part): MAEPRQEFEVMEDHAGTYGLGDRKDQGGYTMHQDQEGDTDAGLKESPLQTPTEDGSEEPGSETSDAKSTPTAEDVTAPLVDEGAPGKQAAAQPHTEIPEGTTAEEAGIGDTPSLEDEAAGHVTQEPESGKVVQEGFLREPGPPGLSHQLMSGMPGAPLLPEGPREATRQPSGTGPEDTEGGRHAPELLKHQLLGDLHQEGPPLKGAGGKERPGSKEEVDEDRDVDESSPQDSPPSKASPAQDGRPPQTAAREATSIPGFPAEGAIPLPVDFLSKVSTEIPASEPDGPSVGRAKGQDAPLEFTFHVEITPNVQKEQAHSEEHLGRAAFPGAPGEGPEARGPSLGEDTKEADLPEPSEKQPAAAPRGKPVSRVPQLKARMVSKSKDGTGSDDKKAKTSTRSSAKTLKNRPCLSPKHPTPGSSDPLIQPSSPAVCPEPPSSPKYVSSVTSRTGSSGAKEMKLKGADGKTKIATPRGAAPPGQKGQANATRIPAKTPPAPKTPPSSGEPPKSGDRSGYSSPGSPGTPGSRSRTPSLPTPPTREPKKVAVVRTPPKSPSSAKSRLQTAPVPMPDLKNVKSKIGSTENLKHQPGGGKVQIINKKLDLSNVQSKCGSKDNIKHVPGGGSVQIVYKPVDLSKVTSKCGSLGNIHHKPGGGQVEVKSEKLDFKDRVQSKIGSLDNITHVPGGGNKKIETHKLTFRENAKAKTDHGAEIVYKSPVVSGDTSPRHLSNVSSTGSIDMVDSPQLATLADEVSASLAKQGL
In short: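 In this qHTS, human K18 P301L tau is incubated with compound and heparin for 6 hr at 37 C, and Thioflavin T fluorescence then reports fibril load.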
For `Fc1ccc(CSc2ccc(-c3ccc4c(c3)OCO4)nn2)cc1`, the Potency was inconclusive: 0.631 µM [inhibitor, full curve].
For `C/C(=N\NC(=O)C1COc2ccccc2O1)c1ccc(C)o1` (stereo not given), the Potency was inconclusive: 20 µM [inhibitor, partial curve].
For `CN1/C(=C\C(=O)Nc2ccc(Cl)cc2)C(C)(C)c2ccccc21`, the Potency was inconclusive: 11.2 µM [inhibitor, partial curve].
In the case of `COc1ccc2c(c1)OC[C@H]1c3cc4c(cc3O[C@@H]21)OCO4`, the Potency is reported as inconclusive: 17.8 µM [inhibitor, partial curve, poor fit].
`Cc1cccc(N2CCN(C(=O)c3ccc(CS(=O)c4cccc(Cl)c4)o3)CC2)c1C` (stereo not given) was tested, and the Potency was inconclusive: 25.1 µM [inhibitor, partial curve].
For `CN(C)c1cc2c(cc1NS(=O)(=O)c1ccccc1)n(C)c(=O)n2C`, the Potency was inconclusive: 28.2 µM [inhibitor, single point].
For `Cn1c(Cc2cccc3ccccc23)nnc1SCC(=O)N1CCN(c2ccccc2)CC1`, the Potency was inconclusive: 31.6 µM [inhibitor, single point].
`CC(C)Oc1ccc(C(=O)NC(=S)Nc2ccc(Cl)c(C(=O)O)c2)cc1` was tested, and the Potency was inconclusive: 20 µM [inhibitor, single point].
For `COC(=O)[C@@]1(Cc2ccc(F)cc2)[C@H]2c3cc(C(=O)N4CCCC4)n(CCc4ccc(O)c(O)c4)c3C[C@H]2CN1C(=O)c1ccccc1`, the Potency was inconclusive: 28.2 µM [inhibitor, single point] and inconclusive: 31.6 µM [inhibitor, partial curve].
With `C/C(=N\N1C(=O)CSC1=S)c1ccc(Br)cc1` the Potency was inconclusive: 22.4 µM [inhibitor, partial curve].
With `O=C(Nc1nnc(SCc2ccc(F)cc2)s1)c1ccc2ncsc2c1` the Potency was “inactive”.
In the case of `Cc1c(CC(=O)N2CCCCC2)c(=O)oc2c(C)c3occ(C(C)(C)C)c3cc12`, the Potency is reported as inconclusive: 11.2 µM [inhibitor, partial curve].
For `CC1CCC(NC(=O)N(CCCl)N=O)CC1` (stereo not given), the Potency was “inactive”.
In the case of `C#CCOCCOCCOCCNc1nc(N2CCN(C(=O)[C@H]([C@@H](C)CC)n3cc([C@@H](N)Cc4ccc(O)cc4)nn3)CC2)nc(N2CCN(C(=O)[C@H](Cc3ccc(O)cc3)n3cc([C@@H](N)C(C)CC)nn3)CC2)n1` (stereo not given in full), the Potency is reported as inconclusive: 39.8 µM [inhibitor, single point].
With `O=C(CSc1ncnc2c1cnn2-c1ccccc1Cl)N1CCN(C(=O)c2ccco2)CC1` the Potency was inconclusive: 44.7 µM [inhibitor, single point].
In the case of `O=C(C[n+]1ccc(C(=O)N/N=C/c2ccc(OCc3ccccc3)cc2)cc1)c1ccccc1`, the Potency is reported as active: 6.31 µM.
For `O=c1[nH][nH]c(=S)n1-c1ccccc1C(F)(F)F`, the Potency was inconclusive: 31.6 µM [inhibitor, partial curve, poor fit].
In the case of `Cc1ccc(NC(=O)C(=O)NCC(c2cccnc2)N2CCOCC2)cc1Cl` (stereo not given), the Potency is reported as inconclusive: 17.8 µM [inhibitor, partial curve, poor fit].
In the case of `O=C(O)CCCC(=O)Nc1ccc(Br)cc1`, the Potency is reported as “inactive”.
For `Cc1nc2c(-c3ccccc3)c(C)[nH]n2c(=O)c1Cc1ccccc1`, the Potency was “inactive”.
In the case of `COc1ccc(Cl)cc1NC(=O)CCS(=O)(=O)c1cccc2nonc12`, the Potency is reported as “inactive”.
`O=C(O/N=C1/CCSc2ccccc21)c1ccccc1` was tested, and the Potency was inconclusive: 11.2 µM [inhibitor, partial curve].
For `COc1ccc(N=Cc2c(O)[nH]c3ccccc23)cc1`, the Potency was inconclusive: 11.2 µM [inhibitor, partial curve].
`Cc1ccc(C)c(/C(O)=C2/C(=O)C(=O)N(CCN3CCOCC3)C2c2ccco2)c1` (stereo not given) was tested, and the Potency was inconclusive: 39.8 µM [inhibitor, single point].
With `O=C(Nc1ccc(N2CCOCC2)cc1)C1CCN(S(=O)(=O)c2ccccc2F)CC1` the Potency was inconclusive: 25.1 µM [inhibitor, single point].
In the case of `COc1ccc(/C=N/NC(=O)c2cccc(NC(=O)c3ccc(Cl)cc3)c2)c(OC)c1`, the Potency is reported as inconclusive: 3.55 µM [inhibitor, full curve].
For `Cc1ccc(-c2[nH]c3ccccc3c2SCCNC(=O)c2ccc(S(=O)(=O)N(C)C)cc2)cc1`, the Potency was “inactive”.
For `CCOc1ccc(C2=Nn3c(nnc3-c3ccco3)SC2)cc1`, the Potency was inconclusive: 5.01 µM [inhibitor, partial curve].
`O=C(COc1ccc2ccccc2c1)N1CCN(c2ccccc2O)CC1` was tested, and the Potency was inconclusive: 11.2 µM [inhibitor, partial curve].
In the case of `COc1ccc(C(=O)c2ccc(CC#N)s2)cc1`, the Potency is reported as inconclusive: 14.1 µM [inhibitor, partial curve].
With `OC(COc1ccc2c(c1)OCO2)CN1CCN(c2ccccc2)CC1` (stereo not given) the Potency was inconclusive: 5.62 µM [inhibitor, partial curve, poor fit].
`O=C(Nc1ccc(O)c(-c2nc3ccccc3o2)c1)C1(c2ccccc2)CCCC1` was tested, and the Potency was “inactive”.
`COc1ccccc1C(=O)Nc1ncc2c(n1)CC(c1ccco1)CC2=O` (stereo not given) was tested, and the Potency was inconclusive: 11.2 µM [inhibitor, partial curve].
`O=[N+]([O-])c1cc(Cl)ccc1N1CCN(c2ccccc2O)CC1` was tested, and the Potency was active: 14.1 µM.
With `CCOC(=O)c1cc(C#N)c(N2CCN(C)CC2)nc1-c1ccccc1` the Potency was inconclusive: 7.94 µM [inhibitor, single point].
`COc1cccc(CNC(=O)Cc2csc3ccccc23)c1OC` was tested, and the Potency was “inactive”.
`C=CCOc1ccc(C=Nc2ccc(OC)cc2)c(O)c1` was tested, and the Potency was inconclusive: 22.4 µM [inhibitor, partial curve].
In the case of `Cn1cnnc1Sc1ccc(C(=O)OCC(=O)Nc2cc(Cl)cc(Cl)c2)cc1[N+](=O)[O-]`, the Potency is reported as inconclusive: 12.6 µM [inhibitor, partial curve].
With `CCc1ccc(NC(=O)N(Cc2ccco2)C(C)c2cccs2)cc1` (stereo not given) the Potency was inconclusive: 35.5 µM [inhibitor, single point].
With `COc1cccc(-c2ccc3c(N)c(C(=O)c4ccc(Br)cc4)sc3n2)c1` the Potency was active: 4.47 µM.
